Measured values published in PubChem BioAssay AID686979 (National Center for Advancing Translational Sciences (NCATS), 2013).
Where “and” joins values, the source holds several entries; their conditions need not be identical. Equal entries are not always repeated. The campaign covered roughly 420,000 compounds. About 50,000 (12%) were called active. The shares of active, inactive and inconclusive entries below differ from those in the screen. Calls come from the whole dose curve; as a rule, active = well fitted inhibition curve with a large enough effect; inconclusive = small, poorly fitted or top-dose-only effect; inactive = flat fitted curve, though single readings scatter. Potencies of inconclusive entries are doubtful fits and often do not repeat.

Assay: qHTS for Inhibitors of human tyrosyl-DNA phosphodiesterase 1 (TDP1): qHTS in cells in presence of CPT; note: nearly all actives have a fitted effect of over 55% in size
Conditions: chicken DT40 Tdp1-/-;hTDP1 cells + 20 nM CPT, ATP luminescence, 48 h; activity change, negative = growth inhibition: at 46.2 µM (top of the series)
Summary of the method: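 Chicken DT40 Tdp1-/- cells complemented with human TDP1, 400 cells/well, exposed to compounds plus 20 nM camptothecin for at least 48 h at 37 C; viability read as ATP content by CellTiter-Glo luminescence.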
% is set by controls: 0 for no effect and ±100 for the full control effect; potency is the fitted concentration of half-maximal effect; tags give direction and shape of the fitted curve.

SMILES | Potency | activity change, negative = growth inhibition
CCOC(=O)C1=C(C)Nc2sc(C(=O)c3ccc(F)cc3)c(N)c2C1c1ccc(C(=O)OC)cc1 (stereo unspecified) | active: 18.4 µM | 
Cn1c(N)c(C(=O)COC(=O)C2(c3ccc(Cl)cc3)CCCC2)c(=O)n(C)c1=O | active: 14.6 µM | 
CCN1CCC(N(Cc2ccc(F)cc2)C(=O)Nc2ccc(C)c(F)c2)CC1 | inconclusive: 29.1 µM [inhibitor, single point] | 
COc1ccc(C(=O)Nc2ccc(-c3nc4cc(C)ccc4o3)c(O)c2)cc1 |  | inconclusive: -1.44% [inhibitor]
COc1ccc(CN(CC2CCC(C(=O)O)CC2)C(=S)Nc2cc(C)ccc2C)cc1 (stereo unspecified) | inactive | 
C[C@@H]1O[C@H](CCc2cccc(Cl)c2)CC2=C1C(=O)OC(C)(C)O2 | active: 1.64 µM | 
O=C(CSc1nccn1Cc1ccco1)Nc1ccc(OC(F)(F)F)cc1 | inconclusive: 16.4 µM [inhibitor, single point] | 
COc1cc(/C=C/C(=O)OC2CC3CCC2(C)C3(C)C)ccc1O (stereo unspecified) | active: 18.4 µM | 
O=[N+]([O-])c1ccccc1OCCCOc1cccc2cccnc12 | inconclusive: 29.1 µM [inhibitor, single point] | 
COc1ccccc1/C=C/C=N/N1CCN(Cc2cccc3ccccc23)CC1 | inconclusive: 14.6 µM [inhibitor, single point] | 
Cc1nc(N2CCOCC2)c2c(C(=O)N3CCN(c4cccc(C(F)(F)F)c4)CC3)c(C)oc2n1 | inconclusive: 29.1 µM [inhibitor, single point] | 
Cc1cccc2nc(-c3ccc(Cl)s3)c(Nc3ccc4c(c3)OCCO4)n12 | inconclusive: 29.1 µM [inhibitor, single point] | 
COc1ccc(Cl)c2sc(N(CCN(C)C)C(=O)CCS(=O)(=O)c3ccc(C)cc3)nc12 | inconclusive: 23.1 µM [inhibitor, single point] | 
COc1cc(Cl)c(NC(=O)CN2C(=O)c3cccnc3Sc3ccccc32)c(OC)c1 | inactive | 
CC(C)c1ccc(NC(=O)Cn2nnc(C(=O)NCCc3ccccc3)c2N)cc1 | inactive | 
CCOc1cc(/C=N/NC(=O)c2cc(-c3ccccc3)nc3ccccc23)ccc1O | inconclusive: 6.51 µM [inhibitor, partial curve] | 
CNS(=O)(=O)c1cc(NC(=O)c2cnc(SC)n2-c2ccccc2)ccc1C | inconclusive: 29.1 µM [inhibitor, single point] | 
CCC1(C2CCN(Cc3ccccc3Cl)CC2)NC(=O)N(CC2COc3ccccc3O2)C1=O (stereo unspecified) | inconclusive: 29.1 µM [inhibitor, single point] | 
Cc1ccc(C)c(NC(=O)CSc2cn(CC(=O)N3CCCCC3)c3ccccc23)c1 | inconclusive: 18.4 µM [inhibitor, partial curve] | 
CCc1nc2ccccc2c(=O)n1/N=C/c1ccc(Cl)cc1 | inactive | 
NC(=O)CCS(=O)(=O)c1ccc(Cl)cc1 | inactive | 

SMILES | Potency | activity change, negative = growth inhibition
COc1ccc(OC(=O)c2cc(-c3ccc4c(c3)OCCO4)on2)cc1 | inconclusive: 11.6 µM [inhibitor, partial curve, poor fit] | 
COc1ccc(/C=C(\C#N)C(=O)NCc2cccnc2)cc1OC | inconclusive: 23.1 µM [inhibitor, single point] | 
CCCCNC(=O)C(C)N(CCN(C)C)C(=O)CCCN1C(=O)NC(c2ccc([N+](=O)[O-])cc2)C(C(=O)OCc2ccccc2)=C1C (stereo unspecified) | active: 18.4 µM | 
Cc1nn(-c2ccccc2)c(-n2cccc2)c1C(=O)NCCCN1CCN(c2ccccc2F)CC1 | active: 16.4 µM | 
CN(C)[C@H]1N(C(=O)c2ccc(Br)cc2)N=C2c3ccccc3S(=O)(=O)N21 | inactive | 
CCSc1nc(-c2ccc(OC)cc2)cc(-c2ccc(OC)cc2)c1C#N | inconclusive: 25.9 µM [inhibitor, partial curve] | 
Cc1c(CC(=O)N2CCN(C(=O)C3COc4ccccc4O3)CC2)c(=O)oc2c(C)c(O)ccc12 (stereo unspecified) |  | inconclusive: -33.4% [inhibitor]
Cc1nc2ccc(S(=O)(=O)NCC(=O)NCc3ccc(Cl)cc3)cc2s1 | inconclusive: 29.1 µM [inhibitor, single point] and inconclusive: 18.4 µM [inhibitor, single point] | 
CC(C)(C)N(CC(=O)NC1CCCCC1)C(=O)CS(=O)CC(=O)Nc1ccc(F)cc1 (stereo unspecified) | inactive | 
CC(C)C[C@H](NC(=O)c1nc[nH]c1C(=O)NC1CCN(C(=O)OC(C)(C)C)CC1)C(=O)OCc1ccccc1 | inconclusive: 20.6 µM [inhibitor, single point] | 
COc1ccc(OC)c(Nc2nc(-c3ccc(O)c(O)c3)cs2)c1 | active: 0.82 µM | 
CC1CCN(S(=O)(=O)c2ccc3[nH]ccc3c2)CC1 | inconclusive: 29.1 µM [inhibitor, single point] | 
Cc1ccc(CS(=O)(=O)c2ccccc2-c2nnc(-c3ccc(Cl)cc3)o2)cc1 | inconclusive: 10.3 µM [inhibitor, partial curve, poor fit] | 
COc1ccc(/C=N\NC(=O)c2ccc([N+](=O)[O-])cc2)cc1COc1c(F)c(F)cc(F)c1F | inconclusive: 29.1 µM [inhibitor, single point] | 
Cc1cc(Nc2ccccc2)n(C(=O)c2ccc(Cl)cc2)n1 | inactive | 
O=S(=O)(NNc1ncc(C(F)(F)F)cc1Cl)c1ccc(F)cc1F | inconclusive: 29.1 µM [inhibitor, single point] | 
COc1cc(/C=C/C(=O)OCC(=O)N(C)Cc2ccccc2)cc(OC)c1OC | inconclusive: 29.1 µM [inhibitor, single point] | 
FC(F)(F)c1ccccc1-c1ccc2ncnc(NCc3cccs3)c2c1 | active: 23.1 µM | 
Cc1c(NC(=O)c2cc(-c3ccc(F)cc3)nc3ccccc23)c(=O)n(-c2ccccc2)n1C | inconclusive: 23.1 µM [inhibitor, single point] | 
COc1ccc(Nc2cc(C(=O)NCCCN3CCN(C)CC3)c3ccccc3n2)c(OC)c1 | inconclusive: 29.1 µM [inhibitor, single point] | 
